The list shows a part of the results. The full chains were built here from the parent and the listed change. Values near 0.05 are background.
B1: TEV protease; numbered along this chain (parent)
chain: MGESLFKGPRDYNPISSSICHLTNESDGHTTSLYGIGFGPFIITNKHLFRRNNGTLVVQSLHGVFKVKDTTTLQQHLVDGRDMIIIRMPKDFPPFPQKLKFREPQREERICLVTTNFQTKSMSSMVSDTSCTFPSGDGIFWKHWIQTKDGQCGSPLVSTRDGFIVGIHSASNFTNTNNYFTSVPKNFMELLTNQEAQQWVSGWRLNADSVLWGGHKVFMVKPEEPFQPVKEATQL

Variants of: B1
Experiment: raw area under fraction-flipped curve 0-4 h after induction (AUC4h, not background-subtracted), DNA-recorder readout of cleavage of the substrate (dimensionless); higher = more cleavage of the substrate by the protease variant
Settings: temperature: 34 °C; time window: 0-4 h after rhamnose induction
Description: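 In vivo DNA recorder in E. coli TOP10(DE3) ΔrhaA at 34 °C. Each TEVp single-site mutant (parent TEVp 0) is paired with a single-site variant of the 7-mer TEVs (canonical ENLYFQ|S). The substrate sits between flexible linkers in a Bxb1-sfGFP-TEVs-SsrA fusion, so cleavage stabilises Bxb1 and speeds flipping of a recombination array, read by NGS. The value is the raw area under the fraction-flipped curve over 0-4 h after rhamnose induction (AUC4h), with ≥20 reads per time point. It is not background-subtracted; inactive controls average about 0.047.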
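Note: Bxb1 expression induced with 0.2% (w/v) L-rhamnose at OD600 near 0.5, cultures sampled hourly, flipped fraction per protease–substrate barcode pair counted by paired-end Illumina sequencing.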

| Variant | area with substrate ENLAFQS | area with substrate ENLCFQS | area with substrate ENLDFQS | area with substrate ENLFFQS | area with substrate ENLGFQS | area with substrate ENLKFQS | area with substrate ENLLFQS | area with substrate ENLNFQS | area with substrate ENLPFQS | area with substrate ENLQFQS | area with substrate ENLRFQS | area with substrate ENLSFQS | area with substrate ENLHFQS | area with substrate ENLVFQS | area with substrate ENLEFQS | area with substrate ENLIFQS | area with substrate ENLTFQS | area with substrate ENLWFQS | area with substrate ENLMFQS |
| --- | --- | --- | --- | --- | --- | --- | --- | --- | --- | --- | --- | --- | --- | --- | --- | --- | --- | --- | --- |
| M122Y | 0.0669 | 0.0688 | 0.0706 | 0.0703 | 0.0786 | 0.0803 | 0.0757 | 0.0728 | 0.0585 | 0.0762 | 0.0843 | 0.0615 | – | – | – | – | – | – | – |
| R10L | 0.0627 | 0.0867 | 0.0676 | – | – | 0.075 | 0.0914 | 0.0634 | 0.0522 | 0.03 | – | – | 0.0716 | – | – | – | – | – | – |
| V126G | 0.064 | – | 0.068 | 0.0916 | – | 0.0926 | 0.0664 | 0.0491 | – | 0.0986 | – | – | – | 0.0895 | – | – | – | – | – |
| S169C | 0.0522 | 0.0729 | 0.0644 | 0.0762 | – | 0.0528 | 0.0801 | 0.0649 | 0.0733 | – | 0.0722 | 0.065 | 0.0688 | 0.0874 | 0.0637 | 0.0672 | 0.0485 | 0.0518 | – |
| G202N | 0.0668 | – | 0.072 | 0.0604 | 0.0865 | 0.0551 | 0.0724 | – | – | 0.0463 | 0.0518 | – | – | – | – | – | 0.0998 | 0.0382 | – |
| M188T | 0.0753 | – | 0.0719 | – | – | 0.082 | 0.0676 | 0.0648 | – | 0.0768 | – | 0.0555 | 0.0698 | – | 0.0706 | – | 0.0626 | – | – |
| Q151H | 0.078 | – | 0.0692 | 0.088 | – | 0.0727 | 0.0744 | 0.055 | – | 0.0477 | 0.0645 | 0.0765 | – | 0.0807 | 0.0552 | 0.0757 | – | 0.0491 | – |
| T71F | 0.0668 | 0.067 | 0.0519 | 0.0892 | 0.0513 | 0.0665 | 0.0584 | 0.0511 | 0.0554 | 0.068 | 0.0613 | 0.0467 | 0.0591 | – | 0.062 | 0.0878 | – | 0.0765 | – |
| G166Q | 0.0431 | 0.0442 | 0.0619 | 0.058 | – | 0.0528 | – | 0.0529 | 0.0625 | – | – | 0.051 | 0.0451 | – | 0.047 | – | – | – | – |
| V57K | 0.0634 | – | 0.056 | 0.0765 | 0.0694 | 0.0772 | – | 0.0702 | 0.101 | 0.106 | 0.0527 | 0.0562 | 0.0635 | – | 0.0661 | 0.092 | – | – | 0.0708 |
| G28S | 0.0697 | 0.0682 | 0.054 | 0.0811 | 0.0661 | 0.0691 | – | 0.0539 | 0.0518 | – | 0.0704 | 0.0623 | 0.0681 | – | 0.0651 | 0.0732 | 0.0461 | 0.0652 | 0.0613 |
| S18Y | 0.0368 | – | 0.0603 | 0.0756 | – | 0.0867 | 0.0614 | 0.0644 | – | – | – | 0.062 | 0.0648 | – | 0.0579 | – | – | 0.0621 | – |
| F49H | 0.0688 | – | 0.0627 | 0.0527 | 0.0671 | 0.0591 | 0.0589 | 0.0614 | 0.0677 | – | 0.0495 | 0.0595 | 0.0555 | – | – | 0.0608 | – | 0.0448 | – |
| G2Q | 0.0731 | 0.0682 | 0.0673 | 0.0825 | 0.0534 | – | – | 0.0497 | 0.0649 | 0.0808 | 0.0736 | 0.0571 | 0.0741 | – | 0.0616 | 0.0955 | 0.0645 | 0.0558 | – |
